Assay results reported in PubChem BioAssay AID1030 (National Center for Advancing Translational Sciences (NCATS), 2008).
Hit rate of the full screen: of about 220,000 compounds, about 16,000 (7.3%) were called active. This list was built around the results that the source calls inconclusive (neither active nor inactive); the mix of calls is not that of the screen. Calls follow the shape of the dose curve; as a rule, active = well fitted inhibition curve with a large enough effect (not every such curve was filed as active); inconclusive = small, poorly fitted or top-dose-only effect, or another doubt; inactive = no such curve, though single readings can be large or run the other way. Where the call is inconclusive, the potency comes from a doubtful curve fit.

Each compound was assayed against Aldehyde dehydrogenase 1A1 (Homo sapiens) (UniProt P00352) (assay: qHTS Assay for Inhibitors of Aldehyde Dehydrogenase 1 (ALDH1A1)). Conditions: Purified ALDH1A1, NADH fluorescence, propionaldehyde substrate; series mostly up to 75.3 µM.
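For activity, negative = inhibition in this document: plate controls were no enzyme wells and a reference inhibitor.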
Potency is read from the fitted curve at half-maximal effect; tags tell the direction and shape of the fitted curve.

Chain of UniProt P00352 (P00352 whole entry, looked up): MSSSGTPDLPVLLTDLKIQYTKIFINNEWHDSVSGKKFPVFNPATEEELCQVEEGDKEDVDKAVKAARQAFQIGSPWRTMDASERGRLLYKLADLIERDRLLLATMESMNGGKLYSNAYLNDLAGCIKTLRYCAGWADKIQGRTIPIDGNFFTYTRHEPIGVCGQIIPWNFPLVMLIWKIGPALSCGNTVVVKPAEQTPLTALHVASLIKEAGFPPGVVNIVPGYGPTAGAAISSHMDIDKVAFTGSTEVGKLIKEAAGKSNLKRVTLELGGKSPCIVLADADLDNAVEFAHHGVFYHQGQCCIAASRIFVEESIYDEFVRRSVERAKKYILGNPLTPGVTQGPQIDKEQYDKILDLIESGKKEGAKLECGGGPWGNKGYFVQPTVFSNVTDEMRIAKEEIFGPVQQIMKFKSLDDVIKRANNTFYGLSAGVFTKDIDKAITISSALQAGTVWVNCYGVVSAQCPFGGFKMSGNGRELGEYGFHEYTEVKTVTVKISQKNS

Potency, inconclusive:
COc1ccc(N2C(=O)c3ccccc3NC2(C)C)cc1 35.5 µM [inhibitor, partial curve], COc1cccc(/C=N/NC(=O)CN2CC(c3ccccc3)CC2=O)c1OC (stereo not drawn) 39.8 µM [inhibitor, single point], Cc1cccc(N2CCN(C(=S)Nc3ccc4nc(N5CCOCC5)cc(C)c4c3)CC2C)c1 (stereo not drawn) 28.2 µM [inhibitor, single point], COc1ccc(C2=Nc3cc(C)ccc3OC2)cc1 39.8 µM [inhibitor, partial curve], O=C(Cc1ccccc1)Nc1nc(=O)c2ccccc2s1 20 µM [inhibitor, partial curve], O=C(Nc1nc(-c2nc3ccccc3s2)cs1)C1COc2ccccc2O1 (stereo not drawn) 39.8 µM [inhibitor, single point], Cc1cc(C)cc(C(=O)Nc2nnc(SCC(=O)N3CCCc4ccccc43)s2)c1 22.4 µM [inhibitor, partial curve], COC(=O)COc1ccc(-c2ccc(F)cc2)cc1C=O 22.4 µM [inhibitor, single point], O=C(Cc1cccs1)N1CCC(c2nc3c(nnn3Cc3ccccc3)c(=O)[nH]2)CC1 20 µM [inhibitor, partial curve], N#CCSc1n[nH]c2nc3c(c(=O)n12)C1(CCCC1)Cc1ccccc1-3 25.1 µM [inhibitor, partial curve], COc1cc(C=O)c(Br)cc1OCc1ccc(C)cc1 39.8 µM [inhibitor, single point], CCCCCNC(=O)c1ccc2c(=O)n(CC3CCCO3)c(=S)[nH]c2c1 (stereo not drawn) 0.891 µM [inhibitor, full curve], COc1ccc(NC(=S)N(CCN2CCOCC2)C2CCN(C(C)=O)CC2)cc1Cl 39.8 µM [inhibitor, single point], O=C(/C=C/c1ccc(F)cc1)NC(=S)N1CCOCC1 35.5 µM [inhibitor, single point], O=C(O)c1ccnc(C(=O)O)c1 1.41 µM [inhibitor, full curve], Cc1ccc2cc(C(c3nnnn3C(C)(C)C)N3CCCCCC3)c(=O)[nH]c2c1 (stereo not drawn) 20 µM [inhibitor, partial curve], COC(=O)N/N=C/c1cc([N+](=O)[O-])cc(Br)c1O 39.8 µM [inhibitor, single point], C[N+](C)(C)CCCC(=O)c1ccc2c(c1)OCO2 25.1 µM [inhibitor, single point], Cc1ccc(S(=O)(=O)N2CCN(CC(=O)N/N=C/c3ccc(C)o3)CC2)cc1 37.7 µM [inhibitor, single point], O=C(CCCO)N/N=C/c1ccccc1[N+](=O)[O-] 35.5 µM [inhibitor, single point], COc1ccc(C(=O)NCc2ccc3c(c2)cc(C)n3C)cc1OC 39.8 µM [inhibitor, single point], Cc1ccc(CN(C)C(=O)C2CCCN2C(=O)c2cccs2)o1 (stereo not drawn) 39.8 µM [inhibitor, single point], COc1cc2[nH]c(=O)n(Cc3ccc(C(=O)NCC4CCCO4)cc3)c(=O)c2cc1OC (stereo not drawn) 35.5 µM [inhibitor, single point], CN(C)c1ncnc2ccc(-c3ccccc3C(F)(F)F)cc12 25.1 µM [inhibitor, single point], CCOC(=O)CNC(=O)CSc1ccc2nnc(-c3ccc(F)cc3)n2n1 35.5 µM [inhibitor, single point], Cc1sc2ncn(CC(=O)NCc3ccco3)c(=O)c2c1-c1ccc(F)cc1 28.2 µM [inhibitor, single point], C=C(C)CC(NCc1ccco1)c1ccc(OC)cc1 (stereo not drawn) 31.6 µM [inhibitor, single point], Oc1c(Cl)cc(Cl)cc1C1Nc2ccccc2-n2cccc21 (stereo not drawn) 44.7 µM [inhibitor, single point], Cc1cccc2cc(COC(=O)c3ccco3)c(=O)[nH]c12 39.8 µM [inhibitor, single point], O=C(COc1ccc(/C=N/NC(=O)CSCc2ccc([N+](=O)[O-])cc2)cc1)NCc1ccco1 39.8 µM [inhibitor, single point]

Potency, inactive:
NC[C@H](O)c1ccc(O)c(O)c1, O=C(CSc1ccccn1)Nc1ccc(Br)cn1, O=C(NNS(=O)(=O)c1ccccc1F)c1sccc1-n1cccc1, CN(C)C(CNC(=S)Nc1cccc(Cl)c1)c1ccccc1 (stereo not drawn), COc1ccc(S(=O)(=O)N2CCCCC2)cc1NC(=O)CSc1ncnc2ccccc12, CCn1cc(CN2CCCC(C(=O)c3ccc(-c4ccccc4)cc3)C2)cn1 (stereo not drawn), CCN1C(=O)CC(N2CCC(Cc3ccccc3)CC2)C1=O (stereo not drawn), CCCC(C(=O)O)N1C(=O)/C(=C/c2cccn2C)SC1=S (stereo not drawn), CCOc1ccc(NC(=O)CC)cc1

Potency, active:
COC(=O)c1cccc(-n2c(C)cc(C=O)c2C)c1 7.94 µM, O=C(/C=C1\NCC2c3ccccc3CCN2C1=O)c1ccccc1 (stereo not drawn) 20 µM, Clc1ccccc1-c1nnn(Cc2ccc(-c3nn[nH]n3)cc2)n1 15.8 µM, COc1ccc(C(C#N)N2CCC(c3ccccc3)=N2)cc1OC (stereo not drawn) 2.24 µM, O=C1c2ccccc2CC1Sc1nnc(-c2ccncc2)o1 (stereo not drawn) 1 µM, Cc1cc(/C=N/N2CCN(C)CC2)c(C)n1-c1ccccc1F 11.2 µM, Cc1ccc(S(=O)(=O)NCCCCCC(=O)Nc2nccs2)cc1 15.8 µM, CC(C)C1NC2(C(=O)c3ccccc3C2=O)C2C(=O)N(c3ccc(F)cc3)C(=O)C12 (stereo not drawn) 1.26 µM

activity, negative = inhibition, inactive:
S=C(Nc1ccc2c(c1)Cc1ccccc1-2)Nc1ccc2c(c1)Cc1ccccc1-2 1.62% [at 13.5 µM]
